The RNAGym collection of RNA variant scans (doi:10.7554/elife.90254)
Read counts are not given, so values of variants with three or more changes are uncertain.

B1: LINE1-full (parent)
chain: UACGUAGGUGGUUUUCCCCUGAUAGUGCUAAGGGGGCCUGGAAGUUUGGACUGGGCAGAGCUCAACACAGCGUGGCAAAGUGGCUGUGGCUAGACUGCCUCUCUGGAUUCCUCGUCACUCAGCAGGGCAUCUCUGAGAGAAAUGCC

Variants of: B1
Experiment: self-cleavage, relative activity (ratio to wild type); higher = more cleavage; in vitro, sequencing; the parent is a self-cleaving ribozyme

| Variant | self-cleavage |
| --- | --- |
| C3U U20G U112C | 0.79 |
| U5C A24G U62C | 0 |
| U5C U9A A69G U87C A140G | 0 |
| U5C A30G A121U | 0.98 |
| U5C A69G G122A A140G | 0.68 |
| A6G A64G A94G | 0.61 |
| U5C U14C C61A | 0.21 |
| U5C U39G A129G | 1.47 |
| A6G A43G A64U U130C | 0.57 |
| A6G A77G C113U | 0.7 |
| U5C U39A U102C U132A G144A | 2.21 |
| G4U G70U G114A | 0.06 |
| G4A U26G U47C | 0.97 |
| G4A U14C G21A | 0.31 |
| U5C U104C U134C | 1.93 |
| G4A A22G A43G U87A | 0.19 |
| U5A C16U A77U | 0.59 |
| G4A U46C C120U | 1.05 |
| G4A A42G C131A | 0.64 |
| G4A C19U U87A A124G | 0.06 |
| A6C U29G C51U | 1.39 |
| U5A A30G A67U G137A | 0.14 |
| U5C U91C U100C A107G | 0 |
| U5C A77U U87C A124U | 0.17 |

| Variant | self-cleavage |
| --- | --- |
| U5C A129G A142C | 0.63 |
| U5C U9C U96A | 0.12 |
| G4U U85C A140G U143C | 0.15 |
| A6G A59G A78U U81G G89A | 0 |
| A6G C28A U109C U134A | 0 |
| G4A U47G A50G U104C | 1.41 |
| U5C U12C A65U U91A U100C | 0.7 |
| U5C U20C A129U | 0.89 |
| A6G A22G C71U A121U A140G | 0.55 |
| A6G A30U A65G U109C | 0 |
| U5C U108C C123U | 1.04 |
| U5A C18G G44A U45C C113A A121G | 0.86 |
| U5G U13C U102C A124U | 0.41 |
| U5C A92U U115C | 0.38 |
| A6G C19U G83A | 0.11 |
| A6C C51U U96C U130C | 0.23 |
| C3U U14C C110U U112C A140G | 1.33 |
| A6G A117U U132A | 0.48 |
| U5A A69G G127A | 0.5 |
| G4A U26A A65G U91A U96C A142G | 0.4 |
| G4A U13C A79G A140G | 1.62 |
| U5C A78G A94G G127U U134C | 0.84 |
| C3U U13A A69U A121G U130A A136G | 0.17 |
| U5G U39A U62C C84U A141G | 0.1 |

| Variant | self-cleavage |
| --- | --- |
| U5C U12G A31U U100C U115C A117U A138G | 2.04 |
| G4A U14C U29C U46C A78U | 0.59 |
| A6G A64U C66U U81G A141G | 0.05 |
| U5A A129G A136C | 0.26 |
| U5C A65G A140G | 0.15 |
| U5C U26A G82A U100C U119C | 2.35 |
| U5C G49A U115C | 1.15 |
| G4C G35A U39C G83A | 0.67 |
| A6G A57G U62C U85A U115C U119A | 0 |
| A6G U12C A141G | 2.23 |
| A6G A64U U102C | 0.31 |
| U5A G97A A136U | 0.13 |
| A6G G21U A64U A124U A138G | 0.53 |
| A6G G53A A59G A69U U96A A121G | 0.05 |
| U5A U14C U85C A94G C113U A140G | 0.37 |
| U5C U39C G72A A94G | 0.2 |
| U5C G122A A136U | 2.07 |
| U5C U15C U39C U130C | 1.23 |
| U5C U73C U85C G122A | 0.17 |
| U5C C18A U96A | 0.17 |
| U5A A6U C68U U73A U119C C120U | 0.66 |
| U5C A77U A78G U134A | 0.58 |
| U5A U62A A67G | 0.2 |
| U5C G75A U81A G137A | 0.68 |

| Variant | self-cleavage |
| --- | --- |
| U5C U15A C111U A138U | 1.39 |
| U5A A43G A64G A121G | 0 |
| A6G C63U G88A | 0.21 |
| A6C U23A U130C | 1.26 |
| U5A G54A U91C U100A U143C | 0.05 |
| U5C A94G C98A U112C | 0.19 |
| U5C U73C A107G | 0 |
| A6G A64U A92U U102C U109A U134C | 0 |
| A6G C37U A94U A107G U109A | 0.55 |
| U5A U13C A78G | 0.55 |
| U5C C51U U102C | 0.9 |
| U5C U112C A141U | 0.56 |
| G4A G32U U119C | 0.81 |
| U5C A42U U143C | 0.77 |
| U5C A57C A77U U109A U130C | 0.61 |
| G4C U45C A136G A141U | 0.41 |
| A6G A69U A78G A121U | 0.24 |
| G4A A78G A142U | 0.84 |
| U5A U46C U73C C110U | 1.2 |
| G4A U13C U23C U46A U100C G122A | 0.98 |
| U5A A77U U85G U132C | 0.17 |
| U5C U12C C128A A129G | 0.78 |
| A6G A59G U62A A65G U100A | 0 |
| A6G A136U A138U | 1.48 |

| Variant | self-cleavage |
| --- | --- |
| U5C G70U U73A U104A U108C | 0.05 |
| U5C G11A G41A U47A A69G | 0.31 |
| U5A A65U A94U A142G | 0.14 |
| A6C A22G A79G U96A A141G | 0.16 |
| G4A A31G G32A U45C | 0.63 |
| U5C U45A U112A U143C | 0.89 |
| G4A A22U G40A A107G A136G | 1.09 |
| U5C A30G A69G | 0 |
| U5C G80A A138G | 2.47 |
| G4A U13C U15A U45C | 0.53 |
| A6G A24G A64U U91C A92G | 0 |
| U5C C16U U115A | 0.33 |
| G4A C37A A107G U112C G127A | 1.32 |
| U5C U96C U104C G106A A124U | 0.17 |
| G4U U87C C110U U115A | 0.37 |
| C3U U47A A121G | 1.11 |
| U5C A64G U132A | 0 |
| A6C U13C U14G A69U A121U | 0.14 |
| G4A U13C A59G | 0.13 |
| A6G A67G A77U | 0.31 |
| A6G A65G C90G U115C A138G | 0 |
| A6G C61U A64G U143C | 0.09 |
| U5A A92U U109G C116U U132C G135U | 0.32 |
| U5C U112C A136U | 1.64 |

| Variant | self-cleavage |
| --- | --- |
| U5A U15C A141G | 1 |
| U5A U46A U91A C113A A129G | 0.1 |
| A6G G82A A141G | 1.26 |
| U5C A22G A50G U119A G127A | 0.38 |
| U5A U20C U112C | 0.64 |
| U5C U87A U102C A129U | 0 |
| U5C U87A U104A U132C | 0.09 |
| U5C G36A A94G U109C U112C | 0 |
| A6G A24U A42G | 0.58 |
| U5C A30G A31G | 1.75 |
| U5C U13C A79G A94G C113U | 0.67 |
| G4A U13A A124U | 0.15 |
| G4A U26A A59G G114A A136G | 0.06 |
| G4A C68U U115C U130C | 0.31 |
| U5C A22G U81A U119C | 2.63 |
| C3U U62C A136G A138G | 0.15 |
| C3U U102C U104C U109A | 0.93 |
| U5C U13C U115A | 0.35 |
| A6G U9A U91C | 0.5 |
| C3U U62C G114A U130C | 0.05 |
| U5A U52A A57U | 0.24 |
| G4C U9C A57U | 0.38 |
| U5A U91C U100A | 0.37 |
| A6G A30G A65G C66A A69G U85A A92G | 1.15 |

| Variant | self-cleavage |
| --- | --- |
| U5A U15C U87C | 0.29 |
| U5C A43U U46C G54U A77G G83A U115G | 1.3 |
| U5C G8A A42G | 1.1 |
| G4A U12C A92U | 0.41 |
| U5C U13A A69C A140G | 0.08 |
| A6G G41A G49A U73A G144A | 0.97 |
| A6G U12A U62C A117G | 0.67 |
| A6G A77U U96C A121C | 0.72 |
| G4U U14C A65G | 0.06 |
| U5A G33U A65G G86A U100A U143A | 0.01 |
| U5A U20G C61U A136G | 0.08 |
| U5C A78G A92U U96A | 0 |
| G4A A50G U96C | 0.16 |
| U5C A24G U45C C98U U100A | 0.36 |
| U5C U14A A65G U73C U108A | 0 |
| G4A U13C U20C A31G G97A | 0.19 |
| U5C U39C G93A U96C U132A | 0.11 |
| G4A G36C A42G | 0.94 |
| U5C U73A U104A | 1.09 |
| G4C C56U U62C A78G A94G U143C | 0.63 |
| C3U U26A A117G | 0.77 |
| U5C U46A U47C U112C G127U | 0.53 |
| U5C A107G A117U | 1.21 |
